# Where “and” joins values, the source holds several entries; their conditions need not be identical. Equal values may be shown once. The campaign covered roughly 94,000 compounds. About 6,200 (6.6%) were called active. Inconclusive means that the source gave no clear call. Such entries were picked first, then a sample of the others. The call rests on the fitted dose curve; in most records, active means well fitted inhibition curve with a large enough effect; inconclusive means small, poorly fitted or top-dose-only effect; inactive means flat fitted curve, though single readings scatter. Where the call is inconclusive, the potency comes from a doubtful curve fit.
# Assay: Cytotoxic Profiling in HEK 293 Cell Line of Diverse Libraries Using Quantitative High-Throughput Screening; further: nearly all actives have a fitted effect of over 60% in size
# Conditions: HEK 293 viability, ATP luminescence (CellTiter-Glo), 48-72 h; activity change, negative = cytotoxicity: at 115 µM (top of the series) unless noted; series mostly up to 115 µM
# Procedure, shortened: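 Read-out: CellTiter-Glo ATP luminescence. Cells: HEK 293, 250 cells/well. Exposure: 48 or 72 hr, 37 degree Celsius.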
# On the % scale 0 is the no-effect control and ±100 the full control effect; potency means the concentration at half of the fitted maximal effect; tags describe the fitted curve by direction and shape.
SMILES,Potency,"activity change, negative = cytotoxicity"
CCc1ccc(-c2nc(C3CC(=O)N(c4ccc(OC)cc4)C3)no2)cc1 (stereo not given),"inconclusive: 89.1 µM [inhibitor, single point]",–
CC(=O)Nc1ccc(CN2C(=O)OC3(CCN(Cc4ccccc4)CC3)C2(C)c2ccccc2)cc1 (stereo not given),"inconclusive: 56.2 µM [inhibitor, partial curve, poor fit]",–
CN(C)C(=O)c1ccc(OC2CCN(C(=O)c3ccc(F)c(F)c3)CC2)nc1,"inconclusive: 79.4 µM [inhibitor, single point]",–
O=C(c1ccc(Cl)cc1)N1C[C@@H](F)[C@@H](OCc2nc3ccccc3[nH]2)C1,"inconclusive: 100 µM [inhibitor, partial curve, poor fit]",–
O=C(c1cc(Cl)ccc1F)N1CCC(n2cc(-c3nc(-c4ccccc4)no3)nn2)C1 (stereo not given),"inconclusive: 50.1 µM [inhibitor, partial curve, poor fit]",–
O=C1c2c(nc(COc3ccc(F)cc3F)n2Cc2ccccc2)NCCN1CC1CC1,"inconclusive: 56.2 µM [inhibitor, full curve, poor fit]",–
CNC(=O)c1cc(C)nc2onc(C3CCCN(C(=O)c4ccccc4OC)C3)c12 (stereo not given),–,inactive: -0.513%
O=C(NC1CCCCC1)c1nc2cccnc2n(Cc2ccccc2)c1=O,"inconclusive: 79.4 µM [inhibitor, partial curve, poor fit]",–
O=C(Nc1ccc(-c2nnc3n2CCCC3)cc1)C1CC1,–,inactive: 7.12%
Fc1cc(F)cc(Cc2nc3nccc(-c4ccsc4)n3n2)c1,"inconclusive: 79.4 µM [inhibitor, single point]",–
O=C(NC1CC1)[C@@H]1C[C@H](Oc2ccccc2)CN1C(=O)CN1CCCCCC1,–,inactive: -5%
Cn1nc(C(=O)N2C[C@@H](CO)[C@H](c3ccncc3)C2)c2ccccc21,"inconclusive: 89.1 µM [inhibitor, single point]",–
Cc1ccccc1Cc1c(C)nc2c(C(=O)N3CCC(Cc4nncn4CC4CC4)CC3)cnn2c1C,–,inactive: -30.6%
CCC(=O)N1CCc2c(C(=O)Nc3cc(OC)cc(OC)c3)cccc21,–,inactive: -3.91%
COc1cccc(CNC(=O)c2cc3c(=O)[nH]c(C)cn3n2)c1,"inconclusive: 79.4 µM [inhibitor, partial curve, poor fit]",–
C=CCn1cc2c3c(cccc31)[C@H](CC(C)C)N[C@H](C(=O)NCc1ccccn1)C2,active: 50.1 µM,–
CC1(c2noc(C3CC3)n2)CCN(C(=O)CCCc2nc3ccccc3s2)CC1,"inconclusive: 56.2 µM [inhibitor, partial curve, poor fit]",–
Cc1cnc(CC2CCCN(S(=O)(=O)c3cccs3)C2)n1C(C)C (stereo not given),"inconclusive: 89.1 µM [inhibitor, single point]",–
Oc1ccc(-c2nc(C3CC3)nc3c2CCN(Cc2ccc(C(F)(F)F)cc2)CC3)cc1,"inconclusive: 50.1 µM [inhibitor, partial curve, poor fit]",–
COCCNc1ccc(-c2noc([C@@H]3CCCN3Cc3ccncc3)n2)cn1,"inconclusive: 100 µM [inhibitor, partial curve, poor fit]",–

SMILES,Potency,"activity change, negative = cytotoxicity"
O=C(C1COc2ccccc2C1)N1CCC(n2c(=O)[nH]c3ccccc32)CC1 (stereo not given),active: 22.4 µM,–
CC(C)c1cccc(NC(=O)c2cc3n(n2)CC(c2ccc4c(c2)OCO4)OC3)c1 (stereo not given),"inconclusive: 50.1 µM [inhibitor, partial curve, poor fit]",–
CN1CCCN(C(=O)c2nc3sccn3c2CN2C[C@]3(C)C[C@H]2CC(C)(C)C3)CC1,–,inactive: -17.1%
CN1CC(=O)N(c2ccccc2F)Cc2c1ncnc2N1CCc2ccccc2C1,"inconclusive: 50.1 µM [inhibitor, partial curve, poor fit]",–
CCN1c2cc(C(=O)Nc3cccc(C)c3)ccc2C(=O)N2CCCC21 (stereo not given),"inconclusive: 56.2 µM [inhibitor, single point]",–
Cc1nc2c(c(-c3ccc(Cl)cc3)n1)CCN(C(=O)NC1CCCC1)CC2,–,inactive: -25.7%
CCCNC(=O)Cc1ccc(N(Cc2ccccc2)C(=O)c2ccco2)cc1,"inconclusive: 89.1 µM [inhibitor, single point]",–
COc1ccccc1CC(=O)N1CCC[C@H]1c1nc(-c2ccc(C)cc2)no1,"inconclusive: 50.1 µM [inhibitor, partial curve, poor fit]",–
CN(Cc1ccco1)C(=O)c1ccc(-c2ccc(N3CCCCCC3)nc2)cc1,active: 39.8 µM,–
Cc1ccccc1C(=O)N1CCCCC12Cc1ccccc1NC2=O (stereo not given),"inconclusive: 126 µM [inhibitor, single point] and active: 112 µM",–
O=[S+]([O-])(c1cccs1)N1CCC2(CC(c3cccc(C(F)(F)F)c3)=NO2)C1 (stereo not given),"inconclusive: 35.5 µM [inhibitor, full curve]",–
Cn1ncc2c(C(=O)NCC(=O)c3ccccc3)cc(-c3ccccc3F)nc21,"inconclusive: 89.1 µM [inhibitor, single point]",–
COc1ccc(-c2noc(Nc3cc(C)ccc3OC)n2)cc1,"inconclusive: 10 µM [inhibitor, full curve, poor fit]",–
O=C1CCC2(C(=O)NCCN3CCCCC3)CCCC=C2N1C1CCCC1 (stereo not given),–,inactive: -10.8%
COCCCNC(=O)C1CC(=O)N(c2n[nH]c3cc(Br)ccc23)C1 (stereo not given),"inconclusive: 89.1 µM [inhibitor, single point]",–
O=C(NC1CC1)c1nc(-c2cc(Cl)cc(Cl)c2)c2ccccn12,"inconclusive: 126 µM [inhibitor, single point]",–
COCCN1Cc2ccc(Nc3ccc(OC)cc3)nc2C(C)(C(=O)NC(C)C)C1 (stereo not given),"inconclusive: 79.4 µM [inhibitor, partial curve]",–
CN(C)c1ccc(CN2CC[C@H](c3nnc(-c4ccco4)o3)C2)cc1,"inconclusive: 112 µM [inhibitor, single point]",–
Cc1ccccc1-c1ccc(C(=O)NCCCn2ccnc2C(C)C)cn1,"inconclusive: 50.1 µM [inhibitor, partial curve, poor fit]",–
CN1c2cc(C(=O)Nc3cccc(Br)c3)ccc2C(=O)N2CCCCCC21 (stereo not given),"inconclusive: 20 µM [inhibitor, full curve]",–
